Drawing on patent publication US20190359693A1, this text covers average neutralization titer and Average neutralization titers for eight molecules.

What all share (assay): cell-based or functional assay
In experiment [1] the target is hemagglutinin (HA) of influenza virus B/Florida/04/06 (Yamagata) (influenza B virus).
Experiment [2] addresses hemagglutinin (HA) of influenza B/Brisbane/60/08 (Victoria lineage) (influenza B virus B/Brisbane/60/08).
Experiment [3] deals with hemagglutinin (HA) of influenza A/New Caledonia/20/99 (H1N1) (influenza A virus A/New Caledonia/20/99 (H1N1)).
Experiment [4] has as its target hemagglutinin (HA) of influenza A/Vietnam/1194/04 (H5N1) (influenza A virus A/Vietnam/1194/04 (H5N1)).
Experiment [5] addresses hemagglutinin (HA) of influenza A/Brisbane/10/07 (H3N2) (influenza A virus A/Brisbane/10/07 (H3N2)).
Experiment [6] has as its target hemagglutinin (HA) of influenza B/Harbin/7/94 (Yamagata lineage) (influenza B virus B/Harbin/7/94).
Experiment [7] has as its target hemagglutinin (HA) of influenza virus H3N2 A/Wisconsin/67/05 (influenza A virus).

B1: MD2609 (Fc fusion)
chain: EVQLVESGGGLVQPGGSLKLSCAASGFTFSTSWMYWLRQAPGKGLEWVSVINTDGGTYYADSVKDRFTISRDNAKDTLYLQMSSLKSEDTAVYYCAKDWGGPEPTRGQGTQVTVSSAAA[gap - human IgG1 Fc]
The molecule B1 had an average neutralization titer in experiment [1] of 1.4 nM.

B2: FM1B70.1 (Fc fusion)
chain 1: QVQLVESGGGVVQPGGSLRLSCAASISIFDIYAMDWYRQAPGKQRELVAVSFRDGSTYYADSVKGRFTISRDNSKNTLYLQMNSLRAEDTAVYYCHVSLYRDPLGVAGGIGVYWGQGTLVTVSSGGGGSGGGGSEVQLVESGGGLVQPGGSLRLSCAASGRTLSIYSMGWFRQAPGKEREFVATIGWNSGRTFYPDSVKGRFTISRDNSKNTLYLQMNSLRAEDTAVYYCAAAKGPLRLSSQADYWGQGTLVTVSS[gap - human IgG1 Fc with K409R (EU numbers)]
chain 2: EVQLVESGGGLVQPGGSLRLSCAASGFTFSTSWMYWLRQAPGKGLEWVSVINTDGGTYYADSVKGRFTISRDNSKNTLYLQMNSLRAEDTAVYYCAKDWGGPEPTRGQGTLVTVSSGGGGSGGGGSEVQLLESGGGLVQPGGSLRLSCAASGFTLENKAIGWFRQAPGKEREGVLCISKSGSWTYYADSVKGRFTISRDNSKNTVYLQMNSLRPEDTAVYYCATTTAGGGLCWDGTTFSRLASSWGQGTLVTVSS[gap - human IgG1 Fc with changes]
Consider B2, for which the Average neutralization titers in experiment [2] came out at 6 nM; in experiment [3], 6 nM; in experiment [4], 16 nM; in experiment [5], 16 nM; in experiment [6], 5 nM.

B3: FM1B73.1 (Fc fusion)
chain 1: EVQLLESGGGLVQPGGSLRLSCAASGRTYAMGWFRQAPGKEREFVAAINALGTRTYYADSVKGRFTISRDNSKNTLYLQMNSLRAEDTAVYYCTAQGQWRAAPVAVAAEYEFWGQGTLVTVSSGGGGSGGGGSQVQLVESGGGVVQPGGSLRLSCAASISIFDIYAMDWYRQAPGKQRELVAVSFRDGSTYYADSVKGRFTISRDNSKNTLYLQMNSLRAEDTAVYYCHVSLYRDPLGVAGGIGVYWGQGTLVTVSS[gap - human IgG1 Fc with K409R (EU numbers)]
chain 2: EVQLVESGGGLVQPGGSLRLSCAASGFTFSTSWMYWLRQAPGKGLEWVSVINTDGGTYYADSVKGRFTISRDNSKNTLYLQMNSLRAEDTAVYYCAKDWGGPEPTRGQGTLVTVSSGGGGSGGGGSEVQLLESGGGLVQPGGSLRLSCAASGFTLENKAIGWFRQAPGKEREGVLCISKSGSWTYYADSVKGRFTISRDNSKNTVYLQMNSLRPEDTAVYYCATTTAGGGLCWDGTTFSRLASSWGQGTLVTVSS[gap - human IgG1 Fc with changes]
Regarding B3, the Average neutralization titers turned out to be 5 nM in experiment [2]; 101 nM in experiment [3]; 101 nM in experiment [4]; 16 nM in experiment [5]; 6 nM in experiment [6].

B4: FM1B72.1 (Fc fusion)
chain 1: QVQLVESGGGVVQPGGSLRLSCAASISIFDIYAMDWYRQAPGKQRELVAVSFRDGSTYYADSVKGRFTISRDNSKNTLYLQMNSLRAEDTAVYYCHVSLYRDPLGVAGGIGVYWGQGTLVTVSSGGGGSGGGGSEVQLVESGGGLVQPGGSLRLSCAASGRTLSIYSMGWFRQAPGKEREFVATIGWNSGRTFYPDSVKGRFTISRDNSKNTLYLQMNSLRAEDTAVYYCAAAKGPLRLSSQADYWGQGTLVTVSS[gap - human IgG1 Fc with K409R (EU numbers)]
chain 2: EVQLVESGGGLVQPGGSLRLSCAISGLSLDTYAVGWFRQAPGKEREGVSCISSGHGMTYYADSVKGRFTISTDNSKNTVYLQMNSLRAEDTAVYYCATESRYYCSDNWPAPQRYIYWGQGTLVTVSSGGGGSGGGGSEVQLVESGGGLVQPGGSLRLSCAASGFTFSTSWMYWLRQAPGKGLEWVSVINTDGGTYYADSVKGRFTISRDNSKNTLYLQMNSLRAEDTAVYYCAKDWGGPEPTRGQGTLVTVSS[gap - human IgG1 Fc with changes]
B4: the Average neutralization titers in experiment [2] was 3 nM; in experiment [3], 10 nM; in experiment [4] it was 16 nM; in experiment [5] it was 16 nM; in experiment [6], 6 nM.

B5: FM1B71.1 (Fc fusion)
chain 1: QVQLVESGGGVVQPGGSLRLSCAASISIFDIYAMDWYRQAPGKQRELVAVSFRDGSTYYADSVKGRFTISRDNSKNTLYLQMNSLRAEDTAVYYCHVSLYRDPLGVAGGIGVYWGQGTLVTVSSGGGGSGGGGSEVQLVESGGGLVQPGGSLRLSCAASGRTLSIYSMGWFRQAPGKEREFVATIGWNSGRTFYPDSVKGRFTISRDNSKNTLYLQMNSLRAEDTAVYYCAAAKGPLRLSSQADYWGQGTLVTVSS[gap - human IgG1 Fc with K409R (EU numbers)]
chain 2: EVQLLESGGGLVQPGGSLRLSCAASGFTLENKAIGWFRQAPGKEREGVLCISKSGSWTYYADSVKGRFTISRDNSKNTVYLQMNSLRPEDTAVYYCATTTAGGGLCWDGTTFSRLASSWGQGTLVTVSSGGGGSGGGGSEVQLVESGGGLVQPGGSLRLSCAASGFTFSTSWMYWLRQAPGKGLEWVSVINTDGGTYYADSVKGRFTISRDNSKNTLYLQMNSLRAEDTAVYYCAKDWGGPEPTRGQGTLVTVSS[gap - human IgG1 Fc with changes]
For the molecule B5, the Average neutralization titers in experiment [2] was determined as 6 nM; in experiment [3] it was 16 nM; in experiment [4], 26 nM; in experiment [5], 32 nM; in experiment [6], 6 nM.

B6: FM1B74.1 (Fc fusion)
chain 1: EVQLLESGGGLVQPGGSLRLSCAASGRTYAMGWFRQAPGKEREFVAAINALGTRTYYADSVKGRFTISRDNSKNTLYLQMNSLRAEDTAVYYCTAQGQWRAAPVAVAAEYEFWGQGTLVTVSSGGGGSGGGGSQVQLVESGGGVVQPGGSLRLSCAASISIFDIYAMDWYRQAPGKQRELVAVSFRDGSTYYADSVKGRFTISRDNSKNTLYLQMNSLRAEDTAVYYCHVSLYRDPLGVAGGIGVYWGQGTLVTVSS[gap - human IgG1 Fc with K409R (EU numbers)]
chain 2: EVQLLESGGGLVQPGGSLRLSCAASGFTLENKAIGWFRQAPGKEREGVLCISKSGSWTYYADSVKGRFTISRDNSKNTVYLQMNSLRPEDTAVYYCATTTAGGGLCWDGTTFSRLASSWGQGTLVTVSSGGGGSGGGGSEVQLVESGGGLVQPGGSLRLSCAASGFTFSTSWMYWLRQAPGKGLEWVSVINTDGGTYYADSVKGRFTISRDNSKNTLYLQMNSLRAEDTAVYYCAKDWGGPEPTRGQGTLVTVSS[gap - human IgG1 Fc with changes]
With B6, the Average neutralization titers was 6 nM in experiment [2]; 80 nM in experiment [3]; 101 nM in experiment [4]; 20 nM in experiment [5]; 6 nM in experiment [6].

B7: FM1B75.1 (Fc fusion)
chain 1: EVQLLESGGGLVQPGGSLRLSCAASGRTYAMGWFRQAPGKEREFVAAINALGTRTYYADSVKGRFTISRDNSKNTLYLQMNSLRAEDTAVYYCTAQGQWRAAPVAVAAEYEFWGQGTLVTVSSGGGGSGGGGSQVQLVESGGGVVQPGGSLRLSCAASISIFDIYAMDWYRQAPGKQRELVAVSFRDGSTYYADSVKGRFTISRDNSKNTLYLQMNSLRAEDTAVYYCHVSLYRDPLGVAGGIGVYWGQGTLVTVSS[gap - human IgG1 Fc with K409R (EU numbers)]
chain 2: EVQLVESGGGLVQPGGSLRLSCAISGLSLDTYAVGWFRQAPGKEREGVSCISSGHGMTYYADSVKGRFTISTDNSKNTVYLQMNSLRAEDTAVYYCATESRYYCSDNWPAPQRYIYWGQGTLVTVSSGGGGSGGGGSEVQLVESGGGLVQPGGSLRLSCAASGFTFSTSWMYWLRQAPGKGLEWVSVINTDGGTYYADSVKGRFTISRDNSKNTLYLQMNSLRAEDTAVYYCAKDWGGPEPTRGQGTLVTVSS[gap - human IgG1 Fc with changes]
With B7, the Average neutralization titers in experiment [2] stood at 3 nM; in experiment [3], 80 nM; in experiment [4] it was 101 nM; in experiment [5] it was 16 nM; in experiment [6], 5 nM.

B8: MD2626 (Fc fusion)
chain: EVQLVESGGGLVQPGGSLRLSCAVSISIFDIYAMDWYRQAPGKQRDLVATSFRDGSTNYADSVKGRFTISRDNAKNTLYLQMNSLKPEDTAVYLCHVSLYRDPLGVAGGMGVYWGKGALVTVSSAAA[gap - human IgG1 Fc]GGGGSGGGGSGGGGSGGGGSGGGGSGGGGSEVQLVESGGGLVQPGGSLRLSCAATGFTLENKAIGWFRQTPGSEREGVLCISKSGSWTYYTDSMRGRFTISRDNAENTVYLQMDSLKPEDTAVYYCATTTAGGGLCWDGTTFSRLASSWGQGTQVTVSS
In experiment [7], B8 had an average neutralization titer of 47.8 nM.
